# Test results taken from PubChem BioAssay AID540267 (National Center for Advancing Translational Sciences (NCATS), 2011).
# Screen size: about 340,000 compounds; about 530 (0.16%) were called active. The shares of active, inactive and inconclusive entries below differ from those in the screen. No stated cut-off is given here; in the data, active means activity change below about -80%; inconclusive means between about -30% and that limit; inactive means weaker than that.
# Assay: Small Molecules that selectively kill Giardia lamblia: qHTS;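 further: parasites exposed to compound for two days anaerobically before the ATP read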
# Conditions: Giardia lamblia trophozoite viability; at 7.66 µM; active compounds read low
# In short: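 Each well holds 100 Giardia trophozoites and compound. After two days (48 hrs) at 37 deg C in anaerobic conditions, ATP is quantified by luminescence.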
# On the % scale 0 is the no-effect control and ±100 the full control effect.
row,Structure (SMILES),activity change
1,Cc1nn(Cc2ccc(C(=O)Nc3ccc(C(=O)OC(C)C)cc3)o2)c(C)c1Cl,inactive: -7.05%
2,O=C1c2oc3ccccc3c(=O)c2C(c2ccccn2)N1Cc1ccccc1 (centres undefined),inconclusive: -32.3% [inhibitor]
3,COc1ccc(-c2nc(N/N=C(\C)c3ccc(O)cc3)c3ccccc3n2)cc1,inconclusive: -35.9% [inhibitor]
4,COc1cc(/C=N/N2CCN(Cc3ccc(Cl)cc3)CC2)ccc1OC(C)=O,inconclusive: -41.3% [inhibitor]
5,O=C1CCCC1C(=O)Nc1ccc2ccccc2c1 (centres undefined),inconclusive: -40.3% [inhibitor]
6,Cn1cc(/C=C(\C(=O)O)C(C(=O)O)=C2CCCCC2)c2ccccc21,inactive: -4.84%
7,CSc1ccc(S(=O)(=O)N2CCC(C(=O)Nc3ccc(NC(C)=O)cc3)CC2)cc1,inconclusive: -36.1% [inhibitor]
8,CC(C)(C)C(=O)Nc1ccc(C(=O)CSc2nnc(C3CC3)n2C2CC2)cc1,inconclusive: -30.3% [inhibitor]
9,CC1=C(C(=O)OCCOC(C)C)C(c2cc3c(cc2Br)OCO3)CC(=O)N1 (centres undefined),inactive: 3.26%
10,Cc1c([N+](=O)[O-])c(C(=O)NC2CCCCC2)nn1C,inactive: 3.05%
11,Cc1c(Cl)cccc1NC(=S)NCCc1ccc(C(F)(F)F)cc1,inactive: 7.8%
12,COc1ccc(OCCC(=O)NCc2ccccc2)cc1,inactive: -0.959%
13,CCCc1cc(=O)[nH]c(Nc2cc(OC)ccc2OC)n1,inactive: 1.68%
14,O=C1c2ccccc2C(=O)c2cc(N3CCCCC3)ccc21,inconclusive: -41.4% [inhibitor]
15,Cn1c2ccccc2c(=O)c2c(=O)n(-c3ccccc3)c(-c3ccc(C(C)(C)C)cc3)nc21,inactive: 12.2%
16,O=C(CN1C(=O)COc2ccccc2C1=O)c1ccc2c(c1)OCCO2,inconclusive: -31.7% [inhibitor]
17,CN(C(=O)c1cccc(Nc2ccc(-c3ccc4c(c3)OCCO4)nn2)c1)C1CCCCC1,inconclusive: -36.9% [inhibitor]
18,O=C(c1ccc([N+](=O)[O-])o1)N(Cc1nnc(-c2ccccc2Cl)o1)C1CC1,inconclusive: -57.4% [inhibitor]
19,COc1cccc(CNC(=O)Nc2cccs2)c1,inactive: -0.0135%
20,COc1ccccc1C(=O)NC(=O)OCCn1c(C)cnc1[N+](=O)[O-],active: -82%
21,c1c2c(cc3sc(N4CCCCC4)nc13)OCCO2,inconclusive: -43% [inhibitor]
22,COc1ccc(-c2cc(=O)c3ccccc3o2)cc1,inconclusive: -54.1% [inhibitor]
23,COc1ccc(N2CCN(C(=O)CSc3nc4c(c(=O)n(C)c(=O)n4C)n3C(C)C)CC2)cc1,inactive: 7.34%
24,CCCc1nc2sc3c(c2c(=O)n1NC(=O)CCC(=O)OC)CCCC3,inconclusive: -34.6% [inhibitor]
25,COc1cccc(C(=O)Nc2ccc(NC(=O)Cc3ccccc3)cc2)c1,inconclusive: -31.2% [inhibitor]

row,Structure (SMILES),activity change
1,Cc1ccc(-c2nc3cc(N)ccc3o2)cc1,inconclusive: -36.6% [inhibitor]
2,CCOc1ccc(NC(=O)COC(=O)Cn2nc(C)c([N+](=O)[O-])c2C)cc1OCC,inconclusive: -33.3% [inhibitor]
3,CCCCOc1ccc(C(C)NC(=O)CCS(=O)(=O)Cc2ccccc2Cl)cc1 (centres undefined),inconclusive: -31.3% [inhibitor]
4,C=Cc1ccc(CN2CCCN(Cc3ccc(F)cc3)S2(=O)=O)cc1,inconclusive: -46.2% [inhibitor]
5,O=c1[nH]c(-c2ccc(-c3cccc(Cl)c3)o2)nc2ccccc12,inconclusive: -38.8% [inhibitor]
6,CCOC(=O)N1CCN(C(=O)CNC(=O)c2nn(-c3ccc(OC)cc3OC)c(=O)c3ccccc23)CC1,inconclusive: -32.1% [inhibitor]
7,CCN1CCN(Cc2ccc(NC(=O)Nc3ccccc3OC)cc2)CC1,inconclusive: -35.4% [inhibitor]
8,O=C(NCC1CCN(Cc2ccccc2F)CC1)Nc1ccccc1F,inconclusive: -45.7% [inhibitor]
9,CCCCC1=CC2=CC(=O)C(C)(OC(=O)CC)C(=O)C2=CN1CCCCO (centres undefined),inconclusive: -31.6% [inhibitor]
10,Cc1ccc([C@@H]2CC=C(C(=O)O)[C@H](c3ccc(Br)cc3)N2S(=O)(=O)c2ccc(C)cc2)cc1,inconclusive: -37.5% [inhibitor]
11,COc1ccccc1-c1nnc(NC(=O)CSc2nncn2C)s1,inconclusive: -30.8% [inhibitor]
12,Cc1cccc(NC(=O)COC(=O)COc2ccc3c(c2)CCC3)c1,inconclusive: -31.8% [inhibitor]
13,CSc1ncccc1C(=O)Nc1nc2ccc(Oc3ccccc3)cc2s1,inconclusive: -30.8% [inhibitor]
14,CCOC(=O)C1=CN(Cc2ccc(OC)cc2)C=C(C(=O)OCC)C1c1cccs1,inconclusive: -40% [inhibitor]
15,CN(C)C(=O)CSc1nnc(-c2cccnc2)n1-c1ccccc1,inconclusive: -43.9% [inhibitor]
16,CCS(=O)(=O)N1Cc2ccccc2CC1C(=O)Nc1ccccc1OC (centres undefined),inconclusive: -45.7% [inhibitor]
17,Nc1nnc(-c2ccc([N+](=O)[O-])o2)s1,inconclusive: -65.5% [inhibitor]
18,Cc1ccc2c(c1)c1nc3ccccc3nc1n2C,inconclusive: -45.1% [inhibitor]
19,CC1=NN(c2ccccc2)C(=O)/C1=C/c1c(O)n(-c2ccc(F)c(Cl)c2)[nH]c1=O,inactive: -10.8%
20,CN1CCN(C(=O)c2cc3c(s2)-c2ccccc2S(=O)(=O)C3)CC1,inconclusive: -32% [inhibitor]
21,COCCCn1[nH]c2c3c(ccc2c1=O)C(=O)c1ccccc1C3=O,active: -92.7%
22,O=C(Nc1ccc(-c2cnco2)cc1)c1ccccc1,inactive: -6.03%
23,COc1ccc(OCCOC(=O)c2ccc(F)c(S(=O)(=O)N3CCOCC3)c2)cc1,inconclusive: -30.7% [inhibitor]
24,Cc1ccc2nsnc2c1NC(=O)c1ccc(-c2cc(Cl)ccc2Cl)o1,inactive: -5.39%
